According to paper PMC4336329 (PLoS ONE, 2015):
Hit rate of the full screen: of about 310,000 compounds, about 2,200 (0.71%) showed an effect of 50% or more. Effects have a minus sign here. Some of the results follow.

target: human ether-à-go-go-related gene (hERG) potassium channel (human, UniProt Q12809); test: primary screen, population patch clamp on CHO cells stably expressing hERG
Sequence (Q12809 whole entry, looked up): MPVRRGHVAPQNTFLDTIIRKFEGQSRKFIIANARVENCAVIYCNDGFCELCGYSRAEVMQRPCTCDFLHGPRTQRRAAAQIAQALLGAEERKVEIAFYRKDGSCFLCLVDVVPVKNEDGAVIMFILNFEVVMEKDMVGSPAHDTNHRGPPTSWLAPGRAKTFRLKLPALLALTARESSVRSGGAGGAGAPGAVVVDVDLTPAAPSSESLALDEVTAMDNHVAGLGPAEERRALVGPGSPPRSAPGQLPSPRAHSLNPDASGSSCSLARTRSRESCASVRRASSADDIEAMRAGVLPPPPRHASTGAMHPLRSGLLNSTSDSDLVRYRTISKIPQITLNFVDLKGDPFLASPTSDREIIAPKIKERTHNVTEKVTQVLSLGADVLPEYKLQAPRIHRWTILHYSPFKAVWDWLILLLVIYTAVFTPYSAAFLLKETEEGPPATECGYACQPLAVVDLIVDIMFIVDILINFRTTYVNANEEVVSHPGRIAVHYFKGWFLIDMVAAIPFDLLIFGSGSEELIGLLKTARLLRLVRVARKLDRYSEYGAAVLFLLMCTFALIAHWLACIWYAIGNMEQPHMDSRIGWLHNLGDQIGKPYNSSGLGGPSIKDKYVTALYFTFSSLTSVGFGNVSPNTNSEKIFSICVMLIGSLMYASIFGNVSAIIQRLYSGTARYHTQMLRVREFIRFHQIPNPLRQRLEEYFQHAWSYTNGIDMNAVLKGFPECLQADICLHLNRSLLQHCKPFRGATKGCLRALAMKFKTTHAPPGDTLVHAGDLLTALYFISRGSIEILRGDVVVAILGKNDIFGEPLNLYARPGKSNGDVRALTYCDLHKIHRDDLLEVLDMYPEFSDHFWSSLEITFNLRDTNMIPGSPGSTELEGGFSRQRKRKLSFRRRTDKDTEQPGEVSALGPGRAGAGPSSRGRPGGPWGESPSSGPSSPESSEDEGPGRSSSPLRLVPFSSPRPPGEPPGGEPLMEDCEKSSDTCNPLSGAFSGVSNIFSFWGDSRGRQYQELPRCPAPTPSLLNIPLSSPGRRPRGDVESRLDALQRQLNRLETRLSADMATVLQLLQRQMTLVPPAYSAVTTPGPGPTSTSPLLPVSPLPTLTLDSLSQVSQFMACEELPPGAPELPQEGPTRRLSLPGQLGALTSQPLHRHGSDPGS

Going from `COCCNC(=O)c1ccc(CN2CCC(Cc3ccccc3)CC2)cc1` to `O=C(NCc1ccc(F)cc1)C1CCCN1C(=O)Nc1ccccc1` (centres unmarked), the “hERG current change (%, negative = inhibition) at 1uM” value rises from 2.58% to 7.13%.

Compared with `CCOc1ccc(C(O)Cn2c(=N)n(CCN3CCCCC3)c3ccccc32)cc1.Cl` (centres unmarked), `COc1ccccc1C(=O)Nc1ccc(N2CCCCC2)cc1` is higher in “hERG current change (%, negative = inhibition) at 1uM” value: -56% for the first, 1.06% for the second.

First: C=C1CC(C)OC(c2ccccc2OCC(O)CN2CCCCC2)C1 (centres unmarked)
Second: O=[N+]([O-])c1c(C(Cl)Cl)nn(-c2ccc(Cl)cc2)c1N1CCCCC1
The “hERG current change (%, negative = inhibition) at 1uM” value of the first is lower: -63.3% for the first, 10.9% for the second.

Going from `Cc1ccc(C(=O)OC(C(=O)O)C(OC(=O)c2ccc(C)cc2)C(=O)O)cc1` (centres unmarked) to `CCOC(=O)N1CCN(CC(=O)N2c3ccccc3Sc3ccccc32)CC1.O=C(O)C(=O)O`, the “hERG current change (%, negative = inhibition) at 1uM” value rises from 2.59% to 12.1%.

Going from `O=C(NNc1cc(N2CCOCC2)nc(N2CCOCC2)n1)c1ccc(Cl)cc1Cl` to `CC(=O)c1cccc(OC(=O)c2cc(S(=O)(=O)N3CCOCC3)ccc2N2CCCC2)c1`, the “hERG current change (%, negative = inhibition) at 1uM” value falls from 12.7% to 0.974%.

First: CCOCCCNC(=O)N[C@H](C(=O)OC)C(C)CC (some centres unmarked)
Second: CCOCCCN1C(=O)CN(C2CCCCC2)C(=O)C1c1ccc(OCC)c(OC)c1 (centres unmarked)
The “hERG current change (%, negative = inhibition) at 1uM” value of the first is lower: -3.15% for the first, 12.1% for the second.

Going from `Cc1ccc(-c2csc(N3CCC(NS(=O)(=O)c4ccc5c(c4)OCCO5)CC3)n2)cc1` to `Cc1ccc(CNS(=O)(=O)/C=C/c2ccc3c(c2)OCO3)cc1`, the “hERG current change (%, negative = inhibition) at 1uM” value falls from 9.83% to -0.964%.

Going from `CCN(C(=O)c1c(C)cc(=O)oc1C)c1ccc2c(c1)OCO2` to `CS(=O)(=O)N(CC(=O)NCc1ccc2c(c1)OCO2)c1ccc(Cl)cc1`, the “hERG current change (%, negative = inhibition) at 1uM” value falls from 13.1% to 6.98%.

Compared with `O=C(CCc1ccc(S(=O)(=O)NCc2ccccc2)cc1)NCc1ccco1`, `O=C(COc1ccc(/C=N/NS(=O)(=O)c2ccccc2)cc1)Nc1cccc(Cl)c1` is higher in “hERG current change (%, negative = inhibition) at 1uM” value: -6.49% for the first, 9.31% for the second.

First: Nc1cc(N)nc(SCc2nnnn2-c2ccc(Cl)cc2)n1
Second: CC/C(=N/Nc1ccc(Cl)cc1)c1cnnc(SC)n1
The “hERG current change (%, negative = inhibition) at 1uM” value of the first is lower: 9.6% for the first, 10.5% for the second.

First: C=CCn1c(SCc2ccc3nonc3c2)nnc1-c1cccs1
Second: O=C(Nc1nc(-c2cccs2)cs1)c1ccco1
The “hERG current change (%, negative = inhibition) at 1uM” value of the first is higher: -3.49% for the first, -4.42% for the second.

Compared with `CCN(c1ccccc1)S(=O)(=O)c1ccc(C(=O)Nc2nnc(C3CC3)o2)cc1`, `COc1ccc(CCNC(=O)C2CCC(CNS(=O)(=O)c3ccc(F)cc3)CC2)cc1OC` (centres unmarked) is higher in “hERG current change (%, negative = inhibition) at 1uM” value: 1.19% for the first, 18.2% for the second.

Compared with `CC(=O)c1c(C)nc(Nc2nc(C)c3cc(C)ccc3n2)nc1C`, `Cc1ccc(C)c(SCC(=O)Nc2oc(C)c3c(C)n[nH]c(=O)c23)c1` is lower in “hERG current change (%, negative = inhibition) at 1uM” value: 12.7% for the first, -18.9% for the second.

Going from `COc1ccc(C(=O)Nc2c(N)nc(SCC(=O)NCC3CCCO3)[nH]c2=O)cc1OC` (centres unmarked) to `COC(=O)c1ccc(C(=O)OC)c(NC(=O)CN2CCC(C)CC2)c1`, the “hERG current change (%, negative = inhibition) at 1uM” value rises from 2.17% to 28%.

Going from `COCCCNC(=S)NNC(=S)Nc1ccccc1` to `O=C(NNc1ccccc1[N+](=O)[O-])Nc1cccc(Cl)c1`, the “hERG current change (%, negative = inhibition) at 1uM” value falls from 19.8% to 17.2%.

Going from `O=[N+]([O-])c1ccccc1/C=N/n1c(-c2cccnc2)n[nH]c1=S` to `CCOc1ccccc1Nc1nc(-c2cccnc2)cs1`, the “hERG current change (%, negative = inhibition) at 1uM” value falls from 16.9% to 12.4%.

Compared with `CNC(=O)NC(=O)CSc1ccc(S(=O)(=O)N2CCOCC2)cn1`, `CN1CCN(S(=O)(=O)c2ccc3c(c2)oc(=O)n3C)CC1` is higher in “hERG current change (%, negative = inhibition) at 1uM” value: 5.62% for the first, 12.8% for the second.

Going from `Cc1cc(Nc2ccccc2F)n2ncnc2n1` to `Cc1cc2ccccn2c1C(=O)c1nc(NCc2ccccc2)ncc1Cl`, the “hERG current change (%, negative = inhibition) at 1uM” value rises from 2.23% to 9.8%.

Compared with `Cc1ccc(O)c(/C=N/NC(=O)COc2ccc3c(C)cc(=O)oc3c2)c1`, `CCOc1ccc(-n2c(O)c(C=Nc3ccc(NC(C)=O)cc3)c(=O)[nH]c2=O)cc1` is lower in “hERG current change (%, negative = inhibition) at 1uM” value: 13.9% for the first, 6.61% for the second.

Going from `COC(=O)CN1C(CN2CCOCC2)=Nc2ccc(Br)cc2C1c1ccccc1` (centres unmarked) to `O=C(CSc1nnc(-c2ccccc2)n1Cc1ccco1)Nc1ccc2c(c1)OCCO2`, the “hERG current change (%, negative = inhibition) at 1uM” value rises from -43.8% to 8.16%.

Going from `COc1ccccc1-n1c(O)c(C=NCc2ccc3c(c2)OCO3)c(=O)[nH]c1=O` to `CCOC(=O)[C@@H]1[C@H]2COc3cc(OC)ccc3[C@@H]2N2C(=O)N(c3ccc(C)cc3)C(=O)[C@]12C`, the “hERG current change (%, negative = inhibition) at 1uM” value falls from 13.5% to 10.1%.

First: O=C(NCCS(=O)(=O)N1CCC2(CC1)OCCO2)c1ccc(F)cc1
Second: O=C(c1ccc(Br)cc1)c1cc([N+](=O)[O-])ccc1N1CCCCC1
The “hERG current change (%, negative = inhibition) at 1uM” value of the first is higher: 13.2% for the first, 2.24% for the second.

First: Cc1nn(-c2ccccc2)c(Cl)c1/C=N/NC(=O)c1ccc(CNc2ccccc2)o1
Second: N#CC1=C(N)N(c2ccc(Oc3ccccc3)cc2)C(=O)C1
The “hERG current change (%, negative = inhibition) at 1uM” value of the first is lower: 1.39% for the first, 3.02% for the second.

First: COc1ccc(N2CCN(C(=O)CSc3nc4[nH]ncc4c(=O)n3-c3ccc(Br)cc3)CC2)cc1
Second: O=C(NNC1CC(=O)N(c2ccc(Br)cc2)C1=O)c1ccco1 (centres unmarked)
The “hERG current change (%, negative = inhibition) at 1uM” value of the first is higher: 16.9% for the first, 13.4% for the second.

First: CCn1nnc(NC(=O)c2sc3ccccc3c2Cl)n1
Second: Cc1nc2nc(NCc3cccs3)nn2c(C)c1Cl
The “hERG current change (%, negative = inhibition) at 1uM” value of the first is higher: -0.0481% for the first, -0.695% for the second.

Going from `Cc1cc(C)c(S(=O)(=O)c2cccc(C)c2C)c(=O)[nH]1` to `Cc1cc(N2CCCC2=O)ccc1S(=O)(=O)NC1CCCCC1`, the “hERG current change (%, negative = inhibition) at 1uM” value falls from 15.7% to 13.2%.

Going from `CC(=O)Cc1nsc(Nc2ccc(C)cc2)n1` to `COc1cccc(C2=NOC(C(=O)Nc3cccnc3Cl)C2)c1OC` (centres unmarked), the “hERG current change (%, negative = inhibition) at 1uM” value falls from 19.1% to 14.2%.

Compared with `O=S(=O)(NCc1cccs1)c1ccc(Cl)s1`, `c1ccc(COCC2CCNCC2)cc1` is higher in “hERG current change (%, negative = inhibition) at 1uM” value: 16.1% for the first, 17.8% for the second.
